For two substances, % Inhibition (mean) of paw oedema; Bee venom PLA2 (1 µg) + AIP-2 (50 µg) and % Inhibition (mean) of paw oedema; Daboiatoxin PLA2 (1.5 µg) + PAF (100 µg) results are on record in US20030027764A1.

The target in assay [1] is Bee venom (Apis melifera) PLA2 (Apis mellifera) (UniProt P00630). As to the kind of experiment: cell-based or functional assay.
The target in assay [2] is daboiatoxin, the major PLA2 toxin of Daboia russelli siamensis venom (Daboia russelli siamensis). The assay can be described thus: cell-based or functional assay.

anti-inflammatory peptide-2 from Sigma: the % Inhibition (mean) of paw oedema; Bee venom PLA2 (1 µg) + AIP-2 (50 µg) in assay [1] was 43.7%. On to “recombinant Python Antitoxic Factor (PAF), later renamed Phospholipase Inhibitor from Python (PIP), (from UniProt Q9I8P7 20-201)”, for which, in assay [2], the % Inhibition (mean) of paw oedema; Daboiatoxin PLA2 (1.5 µg) + PAF (100 µg) amounted to 92.1%.
